Several values for one entry are separate records, joined by “and”; a condition that tells them apart may be missing. Identical values can stand only once. About 450 (0.94%) of roughly 48,000 compounds were called active. Inconclusive means that the source gave no clear call. Such entries were picked first, then a sample of the others. Calls come from the whole dose curve; as a rule, active = well fitted inhibition curve with a large enough effect; inconclusive = small, poorly fitted or top-dose-only effect; inactive = no such curve, though single readings can be large or run the other way. A potency beside an inconclusive call is a rough fit, not a confirmed value.
Test: Primary qHTS for Identification of Small Molecule Inhibitors of Huntingtin Promoter Activity; note: nearly all actives have a fitted effect of over 50% in size
Settings: HEK293 HTT promoter firefly luciferase reporter (activity 0% = vehicle and -100% = no light), 24 h; activity change, negative = inhibition: at 57.5 µM (top of the series)
Procedure, shortened: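 Quantitative HTS used concentration series of up to 57.5 uM final on HEK293 luciferase reporter cells, 24 h at 37 degrees C. Readout was Dual-Glo firefly luminescence.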
Potency is the fitted concentration of half-maximal effect; tags give direction and shape of the fitted curve.

With `Cc1cc(SCC(=O)Nc2ccc(C(F)(F)F)cc2)nc(=O)[nH]1` as the compound, how does the Potency read?
Its Potency is inconclusive: 28.2 µM [inhibitor, partial curve].

With `O=C(Nc1ccc(OC(F)(F)F)cc1)C(NS(=O)(=O)c1cccc2nsnc12)c1ccccc1` (stereo not drawn) as the compound, how does the Potency read?
The Potency was inconclusive: 39.8 µM [inhibitor, partial curve, poor fit].

Which Potency does the source give for `O=C1CSC2(C(=O)N(Cc3c(F)cccc3Cl)c3ccccc32)N1c1ccc(F)c(F)c1` (stereo not drawn) here?
Its Potency is inconclusive: 25.1 µM [inhibitor, single point].

For `CCOc1ccc(NC(=O)c2ncn(-c3ccccc3)n2)cc1`, which “activity change, negative = inhibition” value is on record?
Its value is inactive: 36%.

Which Potency does the source give for `CCOc1ccc(S(=O)(=O)NCCc2csc3nc(-c4cccc(C)c4)nn23)cc1` here?
Its Potency is inconclusive: 31.6 µM [inhibitor, partial curve, poor fit].

For `COCCCNC(=O)C1CCN(C(=O)c2cc3sccc3n2Cc2ccc(Cl)cc2)CC1`, which Potency is on record?
Its Potency is inconclusive: 20 µM [inhibitor, partial curve].

With `Cc1ccc(-c2cc3ncc4c(n3n2)-c2ccccc2OC4)cc1` as the compound, how does the “activity change, negative = inhibition” value read?
The value was inactive: 41.3%.

For `O=C(Nc1ccc(Cl)cc1Cl)c1cc(S(=O)(=O)N2CCC3(CC2)OCCO3)ccc1F`, which Potency is on record?
The Potency was inconclusive: 31.6 µM [inhibitor, partial curve, poor fit].

With `CCc1ccccc1Nc1nn2c(=O)c3ccc(C(=O)NCc4ccc(C)cc4)cc3nc2s1` as the compound, how does the Potency read?
The Potency was inconclusive: 8.91 µM [inhibitor, full curve, poor fit].

Which Potency does the source give for `CC(C)(C)C(=O)Nc1cc(-c2cccc(Br)c2)nn1-c1ccccc1` here?
Its Potency is inconclusive: 28.2 µM [inhibitor, single point].

With `CC(=O)Oc1ccccc1C(=O)Nc1ncc([N+](=O)[O-])s1` as the compound, how does the Potency read?
Its Potency is inconclusive: 31.4 µM [inhibitor, partial curve, poor fit] and inconclusive: 17.8 µM [inhibitor, single point].

For `CCN(C(=O)c1ccc2c(c1)N(Cc1cccc(Cl)c1)C(=O)c1ccccc1S2=O)c1ccccc1` (stereo not drawn), which Potency is on record?
The Potency was inconclusive: 35.5 µM [inhibitor, single point].

For `CC(C)c1ccc2oc(-c3ccc(Cl)c(NC(=O)c4cccs4)c3)nc2c1`, which Potency is on record?
The Potency was inconclusive: 10 µM [inhibitor, partial curve, poor fit].

For `Cn1nc(-c2ccc(OCC(=O)Nc3cccc(C(F)(F)F)c3)cc2)c2ccccc2c1=O`, which Potency is on record?
Its Potency is inconclusive: 39.8 µM [inhibitor, single point].

With `Cc1ccc(C(=O)Nc2ccc(F)cc2)cc1S(=O)(=O)N1CCCCCC1` as the compound, how does the Potency read?
The Potency was inconclusive: 25.1 µM [inhibitor, partial curve, poor fit].

For `COc1ccc(S(=O)(=O)NCCc2csc3nc(-c4ccc(Cl)cc4)nn23)cc1C`, which Potency is on record?
Its Potency is inconclusive: 25.1 µM [inhibitor, single point].

Which Potency does the source give for `Cc1cccc(-n2c(-c3ccco3)nc3c(cnn3-c3ccccc3C)c2=O)c1` here?
Its Potency is inconclusive: 15.8 µM [inhibitor, partial curve].

Which Potency does the source give for `Cc1nn(C(=O)c2ccccc2)c(C)c1Sc1ccc(Cl)cc1` here?
The Potency was inconclusive: 28.2 µM [inhibitor, single point].

For `CCOc1ccc(NC(=O)Cn2c(=O)oc3cc(S(=O)(=O)NC4CCCC4)ccc32)cc1`, which Potency is on record?
The Potency was inconclusive: 31.6 µM [inhibitor, partial curve, poor fit].

Which Potency does the source give for `Cc1ccccc1NC(=O)C1CCC(CNS(=O)(=O)c2ccc3c(c2)C(C)(C)C(=O)N3C)CC1` (stereo not drawn) here?
Its Potency is inconclusive: 39.8 µM [inhibitor, single point].

For `Cc1ccc(-n2ncc3c(N(C)Cc4ccccc4)ncnc32)cc1`, which Potency is on record?
Its Potency is inconclusive: 31.6 µM [inhibitor, partial curve, poor fit].

With `COc1ccc(OCc2ccc(-c3nc(C#N)c(N4CCC(C)CC4)o3)o2)cc1` as the compound, how does the Potency read?
Its Potency is inconclusive: 20 µM [inhibitor, partial curve, poor fit].

With `CCc1ccc(S(=O)(=O)c2nnn(-c3ccc(F)cc3)c2N)cc1` as the compound, how does the Potency read?
The Potency was inconclusive: 10 µM [inhibitor, partial curve].

For `CCOc1cc(-c2nnc(SCC(=O)NCc3ccccc3)nc2-c2ccc(OC)c(OCC)c2)ccc1OC`, which Potency is on record?
The Potency was inconclusive: 4.47 µM [inhibitor, partial curve, poor fit].

With `COc1ccc(/C=C\c2onc(C)c2S(=O)(=O)N2CCC(C(=O)Nc3ccc(Cl)cc3)CC2)cc1` as the compound, how does the Potency read?
Its Potency is inconclusive: 15.8 µM [inhibitor, single point].

With `CCc1ccc(NC(=O)C2CCCN(S(=O)(=O)c3ccc4c(c3)CCCN4C(C)=O)C2)cc1` (stereo not drawn) as the compound, how does the Potency read?
The Potency was inconclusive: 28.2 µM [inhibitor, partial curve, poor fit].

For `COc1ccc(NC(=O)C2CCCN(S(=O)(=O)c3ccc4c(c3)CCCC(=O)N4)C2)cc1OC` (stereo not drawn), which Potency is on record?
Its Potency is inconclusive: 20 µM [inhibitor, partial curve, poor fit].

Which “activity change, negative = inhibition” value does the source give for `O=C(C1CCN(c2ncnc3c2nc2n3CCCCC2)CC1)N1CCN(c2ccc(F)cc2)CC1` here?
Its value is inactive: -25.1%.

Which Potency does the source give for `COc1ccc(S(=O)(=O)N2CCC(c3ccncc3)CC2)cc1OC` here?
The Potency was inconclusive: 22.4 µM [inhibitor, partial curve, poor fit].

With `Cc1ccc(NC(=O)C2CCCN2S(=O)(=O)c2ccc3nc(-c4ccccc4)[nH]c3c2)cc1F` (stereo not drawn) as the compound, how does the Potency read?
The Potency was inconclusive: 28.2 µM [inhibitor, single point].

Which Potency does the source give for `COc1ccc(OC)c(Nc2ncnc3c2cnn3-c2cccc(Cl)c2)c1` here?
The Potency was inconclusive: 8.91 µM [inhibitor, partial curve, poor fit].

Which “activity change, negative = inhibition” value does the source give for `CCN(CC)CCNC(=O)c1cc(-c2ccc(Br)s2)nc2ccccc12` here?
Its value is inactive: -28.4%.

With `CCOc1ccccc1NC(=O)N1CCN(C)c2ncccc21` as the compound, how does the “activity change, negative = inhibition” value read?
Its value is inactive: -13.8%.

With `Cc1ccc(OCC(=O)NCC(c2ccc(Cl)cc2)N2CCCCC2)cc1` (stereo not drawn) as the compound, how does the “activity change, negative = inhibition” value read?
The value was inactive: -29.8%.

Which Potency does the source give for `CCC1=Nc2cc(C(=O)NCC(C)c3ccccc3)ccc2Sc2ccc(C)cc21` (stereo not drawn) here?
Its Potency is inconclusive: 31.6 µM [inhibitor, single point].

For `CN(C)CCCN1c2ccccc2Sc2ccc(C(F)(F)F)cc21`, which “activity change, negative = inhibition” value is on record?
Its value is inactive: -16.5%.

For `O=C(NCc1ccc2c(c1)CCN2C(=O)c1ccccc1)Nc1cc(F)ccc1F`, which Potency is on record?
The Potency was inconclusive: 35.5 µM [inhibitor, partial curve, poor fit].

Which Potency does the source give for `COc1ccc(C)cc1S(=O)(=O)NCC(c1cccs1)S(=O)(=O)c1ccc(C)cc1` (stereo not drawn) here?
Its Potency is inconclusive: 39.8 µM [inhibitor, single point].

With `CC(Oc1ccc(F)cc1)C(=O)Nc1nc(-c2ccc(F)cc2)ns1` (stereo not drawn) as the compound, how does the Potency read?
The Potency was inconclusive: 28.2 µM [inhibitor, partial curve, poor fit].

Which Potency does the source give for `CCN(CC)C(=O)c1sc2c(c1C)c(=O)n(Cc1ccccc1)c(=O)n2Cc1ccc(Cl)cc1` here?
Its Potency is inconclusive: 31.6 µM [inhibitor, partial curve, poor fit].

With `O=C(NCC(c1cccnc1)N1CCc2ccccc2C1)C(=O)Nc1ccc(Cl)cc1` (stereo not drawn) as the compound, how does the Potency read?
The Potency was inconclusive: 25.1 µM [inhibitor, single point].

For `Cc1ccc(-c2noc(CSc3nnc(Cc4ccccc4)n3-c3cccc(C)c3)n2)cc1`, which Potency is on record?
Its Potency is inconclusive: 28.2 µM [inhibitor, single point].

With `Cc1cc(C)c(NC(=O)Cn2c(=O)n(Cc3ccco3)c(=O)c3ccc(C(=O)NC4CCCC4)cc32)c(C)c1` as the compound, how does the “activity change, negative = inhibition” value read?
The value was inactive: -8.41%.

For `CC(=O)c1cccc(NC(=O)c2c(N3CCCC3=O)c3cc(F)ccc3n2C)c1`, which Potency is on record?
Its Potency is inconclusive: 28.2 µM [inhibitor, partial curve, poor fit].

With `CCc1cccc(NS(=O)(=O)c2c(C)nc3sc(CC)nn3c2=O)c1` as the compound, how does the Potency read?
The Potency was inconclusive: 28.2 µM [inhibitor, partial curve, poor fit].

Which Potency does the source give for `Cc1ccc(N2CC(NC(=O)c3ccc(S(=O)(=O)N4CCCCC4)cc3)CC2=O)cc1` (stereo not drawn) here?
The Potency was inconclusive: 31.6 µM [inhibitor, partial curve, poor fit].

For `COCCN1C(=O)c2[nH]nc(-c3cc(C)ccc3O)c2C1c1ccc(C(C)C)cc1` (stereo not drawn), which “activity change, negative = inhibition” value is on record?
Its value is inactive: -12.4%.

Which “activity change, negative = inhibition” value does the source give for `O=C(Cc1ccccc1)Nc1cccc(-c2cn3cccnc3n2)c1` here?
The value was inactive: 53.4%.

For `Cc1ccc(CNS(=O)(=O)c2cc3c(cc2C)NC(=O)CO3)cc1`, which Potency is on record?
Its Potency is inconclusive: 22.4 µM [inhibitor, single point].

Which “activity change, negative = inhibition” value does the source give for `O=C(Cn1c(-c2cccs2)cc2ccccc21)NCCc1ccc(Cl)cc1` here?
Its value is inactive: -23.6%.

For `COC(=O)C(C)Sc1ncnc2c1c(-c1ccccc1)cn2-c1ccc(F)cc1` (stereo not drawn), which Potency is on record?
The Potency was inconclusive: 22.4 µM [inhibitor, partial curve, poor fit].

With `Cc1cccc(C)c1-n1ncc(C(=O)N2CCN(c3ccccc3)CC2)c1C1CCN(C(=O)OC(C)(C)C)CC1` as the compound, how does the Potency read?
The Potency was inconclusive: 35.5 µM [inhibitor, partial curve, poor fit].

For `O=C(c1ccc(CSc2nc3ccncc3n2Cc2cccc(F)c2)cc1)N1CCCCCC1`, which Potency is on record?
The Potency was inconclusive: 31.6 µM [inhibitor, partial curve].

For `Cc1cncn1CCc1nc2c3ccccc3nc(SCC(=O)Nc3cccc(Cl)c3)n2n1`, which Potency is on record?
Its Potency is inconclusive: 39.8 µM [inhibitor, single point].

For `CC(C)COc1ccc(C(=O)N(Cc2ccc(N(C)C)cc2)Cc2ccco2)cc1`, which Potency is on record?
The Potency was inconclusive: 31.6 µM [inhibitor, partial curve, poor fit].

Which Potency does the source give for `CC1CCCCN1c1nnc(NC(=O)Nc2ccccc2F)s1` (stereo not drawn) here?
The Potency was inconclusive: 15.8 µM [inhibitor, partial curve, poor fit].

For `CC1CCCN(C(=O)c2cc3c(Cl)nc4ccccc4c3s2)C1` (stereo not drawn), which “activity change, negative = inhibition” value is on record?
The value was inactive: 3.17%.

With `Cc1ccc(Nc2nnc(-c3ccc(C)c(S(=O)(=O)NCc4nc5ccccc5[nH]4)c3)c3ccccc23)cc1` as the compound, how does the Potency read?
Its Potency is inconclusive: 25.1 µM [inhibitor, partial curve].
